# The list shows a part of the results. The energies were worked out here from pooled read counts, against the library average; single values are noisy.
# Molecular target: T1, Pho4 (S. cerevisiae) (UniProt P07270)
# T1 sequence: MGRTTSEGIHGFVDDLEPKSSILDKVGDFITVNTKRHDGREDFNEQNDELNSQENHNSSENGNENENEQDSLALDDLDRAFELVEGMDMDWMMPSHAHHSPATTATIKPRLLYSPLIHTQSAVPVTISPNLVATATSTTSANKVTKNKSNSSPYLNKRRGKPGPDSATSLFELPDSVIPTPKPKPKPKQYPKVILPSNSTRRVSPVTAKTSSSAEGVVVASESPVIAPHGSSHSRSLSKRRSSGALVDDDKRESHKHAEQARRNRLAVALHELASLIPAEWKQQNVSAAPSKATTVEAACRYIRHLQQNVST
# Assay: relative binding free energy (BET-seq); higher = weaker binding
# Details: reference: library average
row,Sequence,relative binding free energy [kcal/mol]
1,ACAGTCACGTGGGATG,0.06
2,CAGTACACGTGGGGGG,-0.14
3,TATTACACGTGGGCGC,0.02
4,AGAGGCACGTGGGGGA,-0.26
5,GTTTTCACGTGTCTCG,0.27
6,AGTTTCACGTGGAGGT,0.22
7,GAAATCACGTGGTGAT,0.29
8,TAGAGCACGTGGAGTG,-0.14
9,GAGTACACGTGGTTAG,0
10,GTCTACACGTGCGTTT,0.15
11,TTTATCACGTGGTTAT,0.11
12,GCGTCCACGTGGTGTG,-0.13
13,GAGGACACGTGTTAGG,0.02
14,AAGCACACGTGGGGGT,-0.08
15,CTACGCACGTGGGTGG,-0.17
16,TTAGGCACGTGTAGTT,-0.03
17,TTGGGCACGTGGAGTA,-0.2
18,AAGCGCACGTGGTGGG,-0.15
19,ATTGGCACGTGGAAGG,-0.03
20,TGTGACACGTGGTTCA,-0.11
21,CAGGGCACGTGAGATG,0.18
22,AGAAACACGTGGGGGA,0.01
23,CGTACCACGTGGTTTT,0.11

row,Sequence,relative binding free energy [kcal/mol]
1,GAAGTCACGTGTGTGC,0.19
2,GTTCTCACGTGGGGCA,0.21
3,CTGGGCACGTGGAGAT,-0.05
4,GGCTGCACGTGGGGAA,-0.02
5,TTTTCCACGTGTGTGG,0.09
6,GTTGGCACGTGAAGAA,0.24
7,GCTTTCACGTGGGGGC,0.18
8,GTTATCACGTGCGTGT,0.08
9,GGTGTCACGTGGAGTA,0.16
10,AGGCTCACGTGGTATT,0.13
11,TTTAGCACGTGGAAGC,0.04
12,TGGTCCACGTGGTATG,-0.12
13,CTGGGCACGTGCGGCA,-0.17
14,AGGCTCACGTGGGTTC,0.19
15,TATCTCACGTGTGTCT,0.35
16,GCGCACACGTGGGTGG,-0.09
17,ATTTTCACGTGTTTAA,0.22
18,TTTGGCACGTGTGATA,-0.11
19,ATTCGCACGTGTATTG,0.02
20,GTATTCACGTGAGTGG,0.32
21,ATCATCACGTGGTTGA,0.18
22,TCTGGCACGTGTTGGT,0.06
23,TGTGACACGTGGAACG,0.14

row,Sequence,relative binding free energy [kcal/mol]
1,ATGTCCACGTGGCTGG,0
2,GCTTCCACGTGTGTTG,0.17
3,GAGTGCACGTGGTCAA,-0.06
4,TTCAACACGTGATGGG,0.21
5,TTGGTCACGTGATAGT,0.27
6,TTTCACACGTGTTTGT,0.03
7,AGCGGCACGTGTGATT,-0.07
8,TAATGCACGTGATGAT,0.18
9,AATATCACGTGGGTTA,0.11
10,TGTAACACGTGTTTGT,-0.12
11,AGTAACACGTGTTTGG,0.01
12,GTTTTCACGTGTCGTT,0.32
13,CGAAGCACGTGTTTTG,-0.07
14,AGTGTCACGTGGCTAT,-0.05
15,TTAAACACGTGTTCTG,-0.1
16,TACGGCACGTGCGGTA,-0.13
17,TTTCACACGTGTTGTC,0.14
18,ATTAGCACGTGAGATT,0.22
19,GTGTCCACGTGTGGTA,-0.03
20,AGGTACACGTGATAGT,0.11
21,TGTGTCACGTGATGTC,0.06
22,TTGGACACGTGTAGGG,0.2
23,TTATGCACGTGGGGAG,-0.14

row,Sequence,relative binding free energy [kcal/mol]
1,GTACACACGTGTGGAG,0.04
2,TGGGCCACGTGTGGAT,0.09
3,CTTGTCACGTGGTCTG,0
4,TGCAGCACGTGGTATT,-0.06
5,AGAAGCACGTGTTGCG,-0.08
6,GTAGGCACGTGAACTG,0.03
7,AATTACACGTGTGGAG,0.23
8,TTGGCCACGTGGTACG,-0.03
9,GGTTACACGTGTAGGA,0.18
10,TGCGCCACGTGTGGGT,0
11,GAGGTCACGTGGTTGT,0.17
12,CTTAACACGTGTTGAT,0.12
13,GAGTGCACGTGGATTT,0.16
14,GGGTTCACGTGTGAAA,0.28
15,TTACGCACGTGGTCGT,-0.22
16,GGAGCCACGTGTTGTG,0
17,ATTCTCACGTGAGGTG,0.33
18,AGGGACACGTGGGGTA,-0.31
19,TTTTTCACGTGCAAGA,0.28
20,TGGTTCACGTGTTAAG,0.32
21,CTTAGCACGTGGGGCT,-0.19
22,CTATTCACGTGTTAGG,0.18
23,GTATTCACGTGGTTTG,0.21

row,Sequence,relative binding free energy [kcal/mol]
1,AGCTTCACGTGTGGGG,0.27
2,AGGCACACGTGTTTTA,0.08
3,TAGGTCACGTGTAGCT,0.21
4,CTAGCCACGTGTGGGG,0.04
5,ATATCCACGTGTGGAG,0.16
6,AGACGCACGTGGCAGG,-0.04
7,AGTTGCACGTGTTGGT,0.08
8,CTGTGCACGTGGAGTT,-0.05
9,CAATGCACGTGTGGTT,0.08
10,CGTAGCACGTGAGGTT,0.05
11,TCCTGCACGTGTTGTT,-0.04
12,GCTGACACGTGGGGTA,-0.23
13,AACTGCACGTGTGTGT,0.02
14,GGCGACACGTGGAGTG,0.01
15,ATTTACACGTGTAGTG,0.02
16,GTTTTCACGTGATTTC,0.41
17,GATGTCACGTGTATAA,0.21
18,TCGTTCACGTGTAGTT,0.22
19,GTAGTCACGTGATTAG,0.25
20,TATATCACGTGTAAAA,0.38
21,GTAGGCACGTGCGGAT,-0.05
22,TCGTACACGTGTGGTA,0.22
23,TGTTCCACGTGAGTTG,0.19

# — the BET-seq Pho4 binding data (Le et al. 2018)
